Measured values from PubChem BioAssay AID463173 (ICCB-Longwood Screening Facility, Harvard Medical School, 2010).
Screen size: about 52,000 compounds; about 1,700 (3.3%) were called active. No stated cut-off is given here; in the data, active means survival mostly below about 52% (no sharp cut-off); inactive means mostly above about 56%. This is one part of the list.

tested on: Wild type; test: S. aureus survival, RN4220 and DeltatarO strains – OD600, teichoic acid synthesis inhibitors, primary screen (AID 463173); conditions: S. aureus RN4220 wild type/DeltatarO growth, OD600, 18 h, hits give low values, screened at 18.75 µg/mL (by protocol)

Structure (SMILES)	survival
CCCCC(=O)Nc1nnc(S(=O)(=O)N(C)Cc2ccc(Cl)cc2)s1	inactive: 81%
COc1ccc(N(Cc2cccs2)C(=O)c2ccco2)cc1	inactive: 82%
COCCCNc1nc2c(c(=O)n(Cc3ccc(F)cc3)c(=O)n2C)n1C	inactive: 130%
Cc1cc(C)cc(NC(=O)CCc2c(C)nc3nc(CNC(=O)c4cccc(F)c4)nn3c2C)c1	inactive: 92%
O=C(NCC(c1ccco1)S(=O)(=O)c1cccs1)c1ccccc1 (configuration not stated)	inactive: 45%
COc1ccc(N2CCN(S(=O)(=O)c3ccc(CC(C)C)cc3)CC2)cc1	inactive: 83%
COC(=O)c1cc(NC(=O)c2cc3c(-c4ccccc4F)nn(C)c3s2)cc(C(=O)OC)c1	inactive: 81%
COc1ccc(OC)c(S(=O)(=O)NCC(c2ccc(N(C)C)cc2)N2CCOCC2)c1 (configuration not stated)	inactive: 59%
CCOC(=O)c1cc2c(=O)n3ccccc3nc2n(Cc2ccco2)c1=NC(=O)c1ccccc1Br	inactive: 73%
Cc1ccc(-n2c(C)cc(/C=N/NC(=O)CC3(C)OCCO3)c2C)cc1	inactive: 111%
COC(=O)c1cc2oc3ccccc3c2n1Cc1ccc(C)cc1	inactive: 82%
Cc1c(Cl)cccc1Nc1nn2c(=O)c3ccccc3nc2s1	inactive: 73%
Cc1cccc(N2CCN(S(=O)(=O)c3ccc(-c4cnc(C5CC5)o4)cc3)CC2)c1C	inactive: 68%
Cc1ccc(Cn2c(SCC(=O)NCc3ccccc3)nc3ccsc3c2=O)cc1	inactive: 76%
Cc1ccccc1-c1noc(-c2ccc(NCC3CCCO3)c([N+](=O)[O-])c2)n1 (configuration not stated)	inactive: 78%
COc1ccccc1CNC(=O)CC(c1ccc(F)cc1)N1Cc2ccccc2C1=O (configuration not stated)	inactive: 73%
CCOc1ccc(NC(=O)Cn2c(=O)n(CCCC(=O)NCCc3ccc(Cl)cc3)c(=O)c3ccccc32)cc1	inactive: 136%
Cc1oc(-c2ccccc2F)nc1CS(=O)(=O)CC(=O)N1CCN(c2ccccc2)CC1	inactive: 77%
COc1ccc(-c2[nH]c(-c3ccc(O)cc3)nc2-c2ccccc2)cc1	active: 0%

Structure (SMILES)	survival
Cc1ccc([N+](=O)[O-])cc1NC(=O)CN(c1ccccc1)S(=O)(=O)N(C)C	inactive: 69%
CCOC(=O)c1cccc(NC(=O)C(C)n2nc(C)c3c(C)n(-c4ccccc4)nc3c2=O)c1 (configuration not stated)	inactive: 95%
Cc1noc(-c2ccc(NCc3ccccc3)c([N+](=O)[O-])c2)n1	inactive: 79%
COc1cccc(CNS(=O)(=O)c2cc3c(cc2C)n(C)c(=O)c(=O)n3C)c1	inactive: 132%
COc1ccc2nc(NC(=O)c3cc(=O)c4ccccc4o3)sc2c1	inactive: 88%
COc1ccc(NC(=O)Cn2c(=O)n(CCc3ccccc3)c(=O)c3ccccc32)cc1	inactive: 103%
Cc1ccccc1OCC(=O)Nc1cc(-c2cccc(Br)c2)nn1-c1ccccc1	inactive: 85%
O=C(NCc1nc2cccnc2n1Cc1ccc(F)cc1)c1ccccc1C(F)(F)F	inactive: 73%
CCCCNC(=O)c1c(C)oc2ncn(CC(C)C)c(=O)c12	active: 1%
CCOc1ccc(NC(=O)Cn2nc(-c3ccncc3)ccc2=O)cc1	inactive: 71%
O=C(c1cccc(Cl)c1)N1CCN(CCc2ccccn2)CC1	inactive: 89%
COc1ccc(C(=O)N(Cc2ccco2)Cc2ccco2)cc1	inactive: 83%
Nc1c(-c2nc(-c3ccncc3)no2)nnn1CC(=O)Nc1ccccc1	inactive: 87%
COc1ccccc1CNCCSc1nnnn1C	inactive: 70%
CCC(c1nnnn1Cc1ccco1)N(Cc1cccs1)Cc1cc2c(C)cc(C)cc2n2nnnc12 (configuration not stated)	inactive: 105%
Cc1ccccc1CN1C(=O)c2ccccc2Sc2ccc(C(=O)NCc3cccs3)cc21	inactive: 74%
CN1CCC(OC(=O)COc2ccc(F)cc2)CC1	inactive: 108%
Cc1noc(/C=C/c2ccccc2F)c1S(=O)(=O)N1CCC(C(=O)N(C)Cc2ccco2)CC1	inactive: 67%
COC(=O)c1c(N)n(-c2cc(Cl)cc(Cl)c2)c2nc3ccccc3nc12	inactive: 59%

Structure (SMILES)	survival
CCC(=O)N1CCc2cc(Br)cc(S(=O)(=O)N3CCCC(C(=O)NCc4ccccc4)C3)c21 (configuration not stated)	inactive: 94%
COc1ccccc1N1CCN(S(=O)(=O)c2c(C)sc3ncn(CC(=O)Nc4ccccc4F)c(=O)c23)CC1	inactive: 78%
COc1ccc(S(=O)(=O)NCC(c2ccco2)N2CCOCC2)cc1C (configuration not stated)	inactive: 89%
O=C(Cn1c(=O)nc(-c2ccccc2)c2cc(Cl)ccc21)NCCc1ccc(Cl)cc1	inactive: 75%
CCOc1ccc(/C=C/c2nc3ccccc3n2S(=O)(=O)c2ccc(Br)cc2)cc1	inactive: 78%
COc1cccc(NC(=O)Cn2c(=O)n(-c3ccc(Cl)cc3)c(=O)c3sc4ccccc4c32)c1	inactive: 83%
CCN1CCN(c2ncc3c(n2)CCN(Cc2ccc(Br)s2)C3)CC1	inactive: 60%
CCc1ccc(NCc2cccn2-c2nnc(N3CCCCCC3)s2)cc1	active: -1%
CCc1ccc(-c2[nH]nc3nc(-c4ccc(OC)cc4)cc(C(=O)NCCc4ccc(OC)c(OC)c4)c23)cc1	inactive: 71%
CCOc1ccc(NC(=O)CSc2nnc(CNC(=O)c3c(F)cccc3Cl)o2)cc1	inactive: 85%
COc1ccc(OC)c(-c2cc(C(=O)Nc3cnn(Cc4ccc(Cl)cc4Cl)c3)no2)c1	inactive: 60%
Cc1ccc(NC(=O)Cn2nnc3sc(-c4ccccc4)cc3c2=O)cc1Cl	inactive: 83%
Cc1ccc2c(c1)N(C(=O)NCc1ccccc1)CCO2	inactive: 88%
CCC(C)NC(=O)c1ccc2c(=O)n3c(nc2c1)CCCCC3 (configuration not stated)	inactive: 78%
COc1ccc(C)cc1NS(=O)(=O)c1ccc2c(c1)n(C)c(=O)n2C	inactive: 65%
CCC(CC)c1nn2c(=O)cc(COc3ccc(NC(=O)c4cccc(Cl)c4)cc3)nc2s1	inactive: 88%
COc1ccc(C(=O)NCC2(N3CCN(C)CC3)CCCCC2)cc1	inactive: 85%
COC(=O)c1ccc(Cl)cc1NC(=O)N(Cc1ccc(C)o1)C1CCN(C(C)=O)CC1	inactive: 76%
CCn1c(=O)c(=O)n(CC)c2cc(N3CCCCC3)c(NC(=O)c3cccc(F)c3)cc21	inactive: 87%
